Test results: the supplement of paper PMC4604168 (melanoma cell lines)
The other results are listed elsewhere or left out. Repeats are few or missing, and single values can be far off.

tested on: WM115; experiment: cell count relative to DMSO control; melanoma cells; higher = more viable cells; conditions: library dose: low library concentration; 72 h
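Note: cell number obtained by counting DAPI-stained nuclei in high-throughput microscope images with image analysis software, screen run in 1,536-well plates.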

Row | SMILES | cell count [%]
1 | CCCS(=O)(=O)Nc1ccc(F)c(C(=O)c2c[nH]c3ncc(Cl)cc23)c1F + N#Cc1c(O)c2c(-c3ccc(-c4ccccc4O)cc3)csc2[nH]c1=O [A769662] (first compound 0.08 µM, partner dose 2 µM) | 95.1
2 | CN(c1ncccc1CNc1nc(Nc2ccc3c(c2)CC(=O)N3)ncc1C(F)(F)F)S(C)(=O)=O + CNC(=O)c1cc(Oc2ccc(NC(=O)Nc3ccc(Cl)c(C(F)(F)F)c3)cc2)ccn1 [sorafenib] (first compound 0.08 µM, partner dose 0.4 µM) | 82.5
3 | CS(=O)(=O)c1ccc(C(=O)Nc2ccc(Cl)c(-c3ccccn3)c2)c(Cl)c1 [vismodegib] + COc1ccc2c(c1)CCC1C2CCC2(C)C(NCCCCCCN3C(=O)C=CC3=O)CCC12 [U73122] (first compound 1 µM, partner dose 0.4 µM) | 93.6
4 | CS(=O)(=O)c1ccc(C(=O)Nc2ccc(Cl)c(-c3ccccn3)c2)c(Cl)c1 [vismodegib] + NC(=O)Nc1cc(-c2cccc(F)c2)sc1C(=O)N[C@H]1CCCNC1 [AZD7762] (first compound 1 µM, partner dose 0.02 µM) | 98.7
5 | NC1(c2ccc(-c3nc4ccn5c(=O)[nH]nc5c4cc3-c3ccccc3)cc2)CCC1 + COc1cc2c(Oc3ccc4[nH]c(C)cc4c3F)ncnc2cc1OCCCN1CCCC1 [cediranib] (first compound 0.4 µM, partner dose 0.4 µM) | 76.3
6 | C=C(c1ccc(C(=O)O)cc1)c1cc2c(cc1C)C(C)(C)CCC2(C)C [Bexarotene] + COc1ccc(COc2ccc(Cc3cnc(N)nc3N)cc2OC)cc1 [GW2580] (first compound 2 µM, partner dose 1 µM) | 96.2
